The campaign covered roughly 310,000 compounds. About 14,000 (4.5%) showed an effect of 50% or more. The effect is printed as a negative number. Some of the results follow.
Target: human ether-à-go-go-related gene (hERG) potassium channel (human, UniProt Q12809)
Experiment: primary screen, population patch clamp on CHO cells stably expressing hERG
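Also: peak tail current of the secondary pulse compared with the same well before compound.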

Sequence of human ether-à-go-go-related gene (hERG) potassium channel (Q12809 whole entry, looked up): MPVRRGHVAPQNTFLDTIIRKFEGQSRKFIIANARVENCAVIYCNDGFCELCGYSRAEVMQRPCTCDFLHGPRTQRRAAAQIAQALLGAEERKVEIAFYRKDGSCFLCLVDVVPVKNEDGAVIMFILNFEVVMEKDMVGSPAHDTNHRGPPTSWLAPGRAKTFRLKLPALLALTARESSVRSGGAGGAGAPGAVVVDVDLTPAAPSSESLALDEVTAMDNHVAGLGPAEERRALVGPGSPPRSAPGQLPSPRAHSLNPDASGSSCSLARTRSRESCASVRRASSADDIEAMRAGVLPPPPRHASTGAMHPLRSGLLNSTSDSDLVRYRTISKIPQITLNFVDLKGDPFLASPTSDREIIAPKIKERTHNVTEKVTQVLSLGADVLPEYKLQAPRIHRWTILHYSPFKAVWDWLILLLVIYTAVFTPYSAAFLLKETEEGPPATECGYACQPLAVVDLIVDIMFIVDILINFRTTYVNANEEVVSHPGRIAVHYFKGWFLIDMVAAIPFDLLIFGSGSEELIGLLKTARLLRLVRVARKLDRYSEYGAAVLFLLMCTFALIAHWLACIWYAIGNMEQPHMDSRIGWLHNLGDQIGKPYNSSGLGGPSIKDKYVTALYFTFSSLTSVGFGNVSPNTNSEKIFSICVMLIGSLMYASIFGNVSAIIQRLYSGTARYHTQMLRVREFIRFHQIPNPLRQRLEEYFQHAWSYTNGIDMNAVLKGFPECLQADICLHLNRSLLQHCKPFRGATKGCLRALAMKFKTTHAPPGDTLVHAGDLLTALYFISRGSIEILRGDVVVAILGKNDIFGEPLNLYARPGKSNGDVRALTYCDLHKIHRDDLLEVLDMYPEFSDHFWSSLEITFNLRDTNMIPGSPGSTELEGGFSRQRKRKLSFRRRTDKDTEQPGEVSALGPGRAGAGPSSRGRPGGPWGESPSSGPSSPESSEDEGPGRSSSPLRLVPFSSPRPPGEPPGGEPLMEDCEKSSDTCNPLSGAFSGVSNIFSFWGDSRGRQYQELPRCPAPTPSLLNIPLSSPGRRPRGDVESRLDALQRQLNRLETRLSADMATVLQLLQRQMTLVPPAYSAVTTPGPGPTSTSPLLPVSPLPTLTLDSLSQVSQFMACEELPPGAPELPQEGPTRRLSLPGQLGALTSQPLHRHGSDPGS

Structure (SMILES)	hERG current change (%, negative = inhibition) at 10uM
COc1ccc(F)cc1S(=O)(=O)NCC(c1ccc2c(c1)OCO2)N1CCN(C)CC1 (stereo not shown)	-45.6%
CN1C(=O)C(O)(CC(=O)c2cccs2)c2ccccc21 (stereo not shown)	19.7%
CCOC(=O)c1cc(C(=O)c2cc(Cl)ccc2O)coc1=N	-4.18%
O=C(NCc1ccccc1Cl)C1CCN(S(=O)(=O)c2ccc(-n3cnnn3)cc2)CC1	-27.3%
Cc1cc(N2CCOCC2)ccc1/C=C1/SC(=O)NC1=O	1.61%
CS(=O)(=O)c1ccc2nc(NC(=O)c3cc(-c4ccccc4)nn3-c3ccccc3)sc2c1	8.38%
O=C(O)CCC(=O)N1CCN(c2ccccn2)CC1	9.16%
Cc1ccccc1-n1c(=O)cc(N2CCCCCC2)[nH]c1=O	1.47%
Cc1cc2occ(CC(=O)Nc3nccs3)c2cc1C(C)C	-0.722%
Cc1cc(C)c2nc(N3CCCC3)c(C#N)cc2c1	3.03%
Cc1cccc(NC(=O)CS(=O)(=O)c2cn(C)c3ccccc23)c1	-5.95%
COc1cccc(-c2nc(NCCN3CCOCC3)c3ccccc3n2)c1O	-40.6%
O=C(C1CCN(S(=O)(=O)c2ccc(-n3cnnn3)cc2)CC1)N1CCCCC1	-30.1%
Cc1oc(-c2cccs2)nc1CSCC(=O)N1CCC2(CC1)OCCO2	-8.76%
COc1ccc2[nH]c3c(c2c1)CN(C)CC3.Cl	8.31%
Cc1ccc(S(=O)(=O)Nc2cccc(C(=O)NC3CCN(Cc4ccccc4)CC3)c2)cc1F	-80.6%
COc1cc(OC)c(N(C)C(=O)c2cc3c(s2)-c2ccccc2S(=O)(=O)C3)cc1Cl	-13.2%
COc1ccc(NC(=O)CN2CCc3ccccc3C2)cc1OC	1.05%
Cc1ccc(Cc2c(C)nc3nc(SCC(=O)NCCCN4CCOCC4)nn3c2C)cc1	-9.58%
COC(=O)NNC(=O)COc1cc(C)c(Br)cc1C(C)C	1.29%
Cc1onc(-c2ccccc2Cl)c1C(=O)NC(=S)NCC(=O)c1ccccc1	-16.9%
CCC(C)NS(=O)(=O)c1ccc(OCC(=O)NCc2cccnc2)cc1 (stereo not shown)	11.4%

Structure (SMILES)	hERG current change (%, negative = inhibition) at 10uM
CCCn1c(NCc2ccco2)nc2c1c(=O)n(C)c(=O)n2C	-14.5%
Cc1cc(N2CCCCC2)ccc1C=C1C(=O)N(C)C(=S)N(C)C1=O	10.7%
COc1ccccc1C(=O)Nc1ccccc1N1CCOCC1	-6.98%
CCNc1nc(Cl)nc(NCc2ccccc2)n1	6.89%
c1ccc(OCc2nnc3n2CCCCC3)cc1	16.9%
N#CC1=C(N)OC2=C(C(=O)CCC2)C12CCN(C(=O)OCc1ccccc1)CC2	-55.9%
CC(C)c1ccc2c(c1)[C@H]1OCC[C@H]1[C@@H](c1cccs1)N2	9.24%
CCOC(=O)C1CCN(c2nc(-c3ccc(C)cc3)nc3ccccc23)CC1	15.4%
O=C(COC(=O)c1cc[n+]([O-])cc1)Nc1ccc(F)c([N+](=O)[O-])c1	4.04%
Cc1[nH]n(-c2ccccc2)c(=O)c1N=Nc1ccc2c(c1)OCO2	11.7%
CCOc1ccnc(OCC)c1Br	28.3%
CC(=O)N1CCn2c3c(c4cc(C)ccc42)CCCC31 (stereo not shown)	-9.77%
CCN(CC)c1ccc2cc(C(=O)NNC(=O)c3ccc(S(=O)(=O)N4CCCCC4)cc3)c(=O)oc2c1	27.8%
COC(=O)c1ccc(NC(=O)CCN2CCN(c3ccccc3)CC2)cc1	-28.9%
CN(CC(=O)Nc1ccccc1Cl)C(=O)c1ccccc1Sc1ccccc1C#N	-4.31%
Cc1cc(/C=C2\C(=O)NC(=O)N(Cc3ccco3)C2=O)c(C)n1-c1ccc(O)cc1	-2.12%
Cc1cc(C(=O)NCc2csc(-c3ccccc3)n2)no1	-10.8%
O=C(CN1C(=O)S/C(=C\c2ccccc2)C1=O)Nc1cc([N+](=O)[O-])ccc1O	6.11%
CCn1c(CNC(=O)c2ccc(OC)c(OC)c2)nnc1SCC(=O)Nc1ccccc1	-21.5%
CN(CC(CC(=O)Nc1nncs1)c1ccccc1)S(=O)(=O)c1ccccc1 (stereo not shown)	-14.2%
COC(=O)c1ccc(CSc2ncnc3sc(C)c(C)c23)o1	12.4%
Cc1c(CC(=O)NCC(=O)NCC(=O)O)c(=O)oc2cc3c(cc12)CCC(C)(C)O3	12.5%

Structure (SMILES)	hERG current change (%, negative = inhibition) at 10uM
Cl.c1cc(CNC23CC4CC(CC(C4)C2)C3)ccn1	-20.2%
COC(=O)Cc1c(C)nc2nc(-c3ccccc3)[nH]n2c1=O	11.2%
Clc1cccc(Cl)c1NC1=NCCC1	20.2%
CCN1CCN(CC(=O)Nc2ccc(OC(F)(F)F)cc2)CC1.Cl	-69.1%
COc1cc(C2c3[nH]c4ccccc4c3C[C@H]3C(=O)N(CCO)CC(=O)N23)cc(OC)c1OC (stereo partly shown)	6.74%
CC(=O)Nc1ccc(C(=O)OCC(=O)NC(=O)NC(C)(C)C)cc1	9.31%
C=CCOc1cccc(C2C(C(=O)c3ccco3)=C(O)C(=O)N2Cc2cccnc2)c1 (stereo not shown)	21.8%
CC(C)c1ccc(/C=N/Nc2ccc(C(=O)O)cc2)cc1	18%
Cc1ccc(SCCc2ccc(C)nc2)cc1	-9.97%
CCCCCCCCNC(=O)CCNC(=O)c1ccc(C(C)(C)C)cc1	8%
COc1ccc(CCNC(=O)Cn2nnc(C(=O)Nc3ccc(Br)cc3)c2N)cc1OC	-14.1%
CCOC(=O)C1CCN(CC(=O)c2c(C)[nH]c3ccccc23)CC1	-39.7%
Oc1cccc(C2c3[nH]c4ccccc4c3CCN2Cc2ccc3c(c2)CCO3)c1 (stereo not shown)	9.6%
NC(=O)c1nsc(C(=O)N(Cc2ccco2)C(C(=O)NCc2ccc(F)cc2)c2ccc(O)cc2)c1N (stereo not shown)	-43.8%
CCOc1ccccc1Nc1ncnc2ccc(Br)cc12	19.9%
Cc1ccc(NC(=O)CN(C)C(=O)c2ccc(Cl)nc2)cc1	-21.3%
CCOC(=O)C1CCN(C(=S)NC2CCCC2)CC1	0.997%
COc1ccc(NC(=O)c2ccc(C#N)cc2)cc1NS(=O)(=O)c1ccc(F)cc1	5.85%
O=C(CP(=O)(O)CC(=O)c1ccccc1)c1ccccc1	9.81%
O=C(c1ccc(Cl)nc1)N1CCN(C/C=C/c2ccccc2)CC1	-44.1%
O=C(Nc1cccc(Cl)c1)C1CCCN(c2cnccn2)C1 (stereo not shown)	-10.8%
O=C(CCc1nnc(C2CCCCC2)o1)N1CCN(c2ccccc2F)CC1	-4.06%

Structure (SMILES)	hERG current change (%, negative = inhibition) at 10uM
O=C1COCC(=O)N1CCc1c[nH]c2ccccc12	17.1%
CN(Cc1ccco1)C(=O)C1CCCN(c2ncnc3c2nc2n3CCCCC2)C1 (stereo not shown)	5.57%
C/C(CC(=O)Nc1ccccn1)=N\NC(=O)C(=O)Nc1cccc(Cl)c1C	8.23%
CCOc1ccc(S(=O)(=O)Nc2cccc(C(=O)N3CCN(c4ccc(OC)cc4)CC3)c2)cc1	-15.8%
COc1cc(OC)cc(C(=O)OCC(=O)N(C)c2ccccc2)c1	13.4%
CCN(Cc1ccncc1)C(=O)CCc1nnc(CCc2ccc(OC)cc2)o1	0.939%
Cc1ccc(NC(=O)c2cccs2)cc1S(=O)(=O)N(C)C	-4.53%
CCN(CC)S(=O)(=O)c1ccc(C(=O)NCCN2C(=O)S/C(=C\c3cccnc3)C2=O)cc1	8.89%
N#Cc1c(NCc2ccccc2)ccnc1NCc1cccnc1	-18.7%
CN(c1ccc(C(=O)NCc2ccccn2)cc1)S(C)(=O)=O	-4.43%
COc1cc(C(=O)Nc2ccc3c(c2)N(C(=O)CCN(C)C)c2ccccc2CC3)cc(OC)c1OC.Cl	-12.2%
O=C(Nc1ccc(OC(F)(F)F)cc1)c1ccc(S(=O)(=O)N2CCOCC2)o1	-53.7%
Cc1ccccc1/C=C1\SC(=S)N(/N=C/c2cc([N+](=O)[O-])ccc2O)C1=O	8.13%
O=C(O)CC[C@@H](C(=O)O)N1C(=O)c2ccccc2C1=O	-6.45%
FC(F)(F)c1cccc(-c2noc(CN3CCOCC3)n2)c1	6.74%
CC1CCCN(S(=O)(=O)c2ccc3oc(=O)ccc3c2)C1 (stereo not shown)	-19.4%
O=C(O)c1cc(NCc2c(F)cccc2Cl)ccc1N1CCOCC1	-21.1%
CCc1cc(C(=O)N2CCN(S(=O)(=O)c3ccccc3F)CC2)sc1C	-3.67%
CC(=O)c1cn(CCC(C)C)c(=O)[nH]c1=O	-0.467%
O=C1Cc2cccc3cccc1c23	13.2%
COc1ccc2c(c1)OC(O)(C(F)(F)F)CC2=O (stereo not shown)	-5.68%
COc1ccc(C(=O)CSc2n[nH]c(C)n2)cc1[N+](=O)[O-]	2.65%

Reference: article PMC4336329 (PLoS ONE, 2015)
